Laboratory results: the supplement of paper PMC11417369
This is one part of the list.

Test system: PfHDP1 homeodomain (GST-tagged)
Assay: gcPBM binding intensity (ln(normalized median fluorescence intensity)); higher = stronger DNA binding
Outline: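 Each value is the highest Masliner-normalised natural-log median intensity across replicate spots of either orientation of a probe. The probes were primer-extended double-stranded 36-bp intergenic genomic sequences on an Agilent 4 × 180k array, alongside negative controls, exposed for 1 h to GST-tagged P. falciparum DNA-binding domains expressed in E. coli. Bound protein was picked up with Alexa488 anti-GST antibody and scanned at 488 nm.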

| Sequence | gcPBM binding intensity (ln) |
| --- | --- |
| TTATAAGATTTATGTACACACATATACACAGCTCTA [CACACA_site6481] | 6.51 |
| AGTATTATATATATATGTACATAATATACATATATA [XGTACX_site8514] | 6.28 |
| ACATATTTATATTCTACACACTTATACTATAATACA [CACACA_site7204] | 6.72 |
| TAATTAATTTACATTTTAATTTTATACAAAATTTAT [CACACA_negctrl_site830] | 6.29 |
| ATGGAACTTAAAAATTGTACACATAAAATGGAGAAG [XGTACX_site1823] | 7.16 |
| GTTATACGCATCAACACACACATACAACGTGGTGTA [CACACA_site1188] | 6.51 |
| TGTTATTAGAAAAATGCACACCAAAAAAAAAAAAAA [CACACA_site8802] | 9.12 |
| ATATACATAATATATAATATAAATATATATATGGAA [CACACA_negctrl_site906] | 5.94 |
| GCTATAAATACAGACGCACACATATACATACAGATA [CACACA_site5778] | 7.04 |
| TGTCATTCCTCTTATTGTACAAAAATATTATAATAT [XGTACX_site1134] | 7.26 |
| TATTAAAATATTTATACACACATAATTTTGATAAAT [CACACA_site4486] | 6.42 |
| AACATATTAATGTACACACACCCACGCACAAACAAA [CACACA_site7320] | 7.6 |
| TAGGAGAAAAAAAAAAGTACCCACAACTATTATACT [XGTACX_site8195] | 6.54 |
| TGGTAATATCGATTCACACATATCAAAATAAAAAAA [CACACA_site4196] | 6.35 |
| TGACATATTATTAGGTGGTCACGTCTCCACGTCAAG [XGTACX_site7943] | 6.47 |
| TGTATAACATTTAGGTGTACAATTATATATAATATA [XGTACX_site8131] | 6.82 |
| TTGAGAAAAATTAATGGTACACATATTATAAGTATA [XGTACX_site6539] | 6.69 |
| TAATTGTACACATGCACACACAAATATTATAGATGT [CACACA_site6528] | 9.85 |
| AAGAAAAAAAAAAAAACACACATATATTTATTTATA [CACACA_site7042] | 6.07 |
| GAAAGAAAAAATGATGAATAGAGATCAAATCTATAT [XGTACX_negctrl_site28] | 6.04 |
| TATACACATAGACACACACACAAAAAAAAAAAAAAA [CACACA_site6338] | 6.51 |
| AAAATTATTTAGTAAGTGCAAAAAAAAAAAAAAAAA | 8.72 |

| Sequence | gcPBM binding intensity (ln) |
| --- | --- |
| AATTTGATTATAAATTGTACATATATATATTAAAAG [XGTACX_site5461] | 6.64 |
| TAAAAATAAATAAATACATGCACCAAAAATAAATTT [TGCATGCA_site801] | 8.72 |
| AAAAAAAAAAAACATACACACACATATATATATATA [CACACA_site8452] | 9.19 |
| ATTGTTAAATATAATACACACGTTTTTAAAAATATA [CACACA_site5239] | 6.57 |
| ATTGCCATTGTTAATGCATGTAACAATTCAGCTCAT [TGCATGCA_site56] | 6.31 |
| CTTTTGTATATTATATGTACACACAATAAGTTAATA [XGTACX_site1684] | 6.53 |
| ACATATATTTATATATGTACATATGATATATACATA [XGTACX_site6122] | 6.18 |
| TACATATAAACAATAACACACACCTAGGTACATGGA [CACACA_site8178] | 6.49 |
| AATTAACAAAAACACACACACACACCCACAAAAAAA [CACACA_site517] | 6.85 |
| TTTTTGTAAACCTACTTCATAATTATTTATATCTAT [XGTACX_negctrl_site599] | 6.4 |
| TAAAAATTTGATCAAACACACGTTGCATAAATTATA [CACACA_site6040] | 8.2 |
| AGGCTATAATACCATACACACATTTATAAAATAACA [CACACA_site6990] | 6.69 |
| TGAAATTAAATATATACACACATATATATTTATATG [CACACA_site3516] | 6.39 |
| AAACAAAAGGAAAACATATATATATTAAATGTATAT [CACACA_negctrl_site1663] | 6.57 |
| GCAAAATAACAATGTTACACTTATAAAATTGAGGCA [GTGCAC_negctrl_site68] | 6.33 |
| ATTTAGAATGTTCCTACACACCAAATTTAAGGGTGC [CACACA_site5320] | 6.5 |
| ATTACAAATTCTTTCAGTACATATAAAGAAAAAAAT [XGTACX_site7786] | 6.59 |
| ATTTATATTCCAATATGTACATATTTTCGTATAACC [XGTACX_site8507] | 6.69 |
| TTTTTTTTTCTCCATACACACTTGATAAAACTTTTT [CACACA_site4512] | 6.63 |
| TATTTATTAAGACACACACACACACGCACAAAATAA [CACACA_site6254] | 7.39 |
| AGGGTTCATATATTAACACACACATACATATTATAT [CACACA_site8959] | 6.72 |
| AGTATTCTAATTTTTAAACACACAAATATAAATAAG [CACACA_site9029] | 6.47 |
